These results are taken from PubChem BioAssay AID488969 (Vanderbilt High Throughput Screening Facility, 2010).

In all, about 110,000 compounds were measured (“z-score”: median about -0.1, highest 2% from about 2 on). Some of the results follow. Activity calls are given as the source filed them.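 Rule for the calls: active = z-score in the third read window above 3 or below -3; inactive = the rest.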

This assay concerns the target Metabotropic glutamate receptor 8 (Rattus norvegicus) (UniProt P70579). Nature of the assay: rat mGluR8 modulators via GIRK flux, primary screen, cell-based, thallium flux, HTS (AID 488969). The conditions noted are these: HEK293 rat mGluR8, GIRK (G protein-gated inwardly rectifying potassium channel) thallium flux, FluoZin2; at 10 µM; stronger effect = higher value; submaximal glutamate (EC20) added with thallium.
Chain of UniProt P70579 (P70579 whole entry, looked up): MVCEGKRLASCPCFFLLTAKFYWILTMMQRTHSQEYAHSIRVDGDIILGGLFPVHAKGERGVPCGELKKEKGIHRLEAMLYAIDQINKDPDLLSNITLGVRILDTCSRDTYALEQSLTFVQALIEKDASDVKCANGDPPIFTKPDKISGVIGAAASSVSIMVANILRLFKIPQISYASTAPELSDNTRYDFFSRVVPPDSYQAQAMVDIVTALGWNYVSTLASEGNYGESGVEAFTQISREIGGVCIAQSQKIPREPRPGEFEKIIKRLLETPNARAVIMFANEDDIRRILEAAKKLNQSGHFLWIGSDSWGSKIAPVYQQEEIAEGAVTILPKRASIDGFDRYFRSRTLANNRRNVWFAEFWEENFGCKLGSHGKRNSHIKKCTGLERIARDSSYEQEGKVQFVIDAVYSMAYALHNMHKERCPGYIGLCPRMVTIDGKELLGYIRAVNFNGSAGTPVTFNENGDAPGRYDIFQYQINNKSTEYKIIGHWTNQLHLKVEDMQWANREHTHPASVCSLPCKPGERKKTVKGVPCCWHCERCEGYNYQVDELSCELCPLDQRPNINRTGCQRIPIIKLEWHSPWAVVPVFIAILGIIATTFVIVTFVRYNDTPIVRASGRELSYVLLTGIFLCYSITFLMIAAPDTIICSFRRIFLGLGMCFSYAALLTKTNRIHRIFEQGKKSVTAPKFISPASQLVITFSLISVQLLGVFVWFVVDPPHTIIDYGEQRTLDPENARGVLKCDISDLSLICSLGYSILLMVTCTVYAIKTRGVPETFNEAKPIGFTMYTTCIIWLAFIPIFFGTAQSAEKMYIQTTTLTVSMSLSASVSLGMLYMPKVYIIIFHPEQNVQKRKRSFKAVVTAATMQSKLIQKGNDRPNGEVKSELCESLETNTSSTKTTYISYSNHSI
`COc1cc(C(=O)NCC(=O)n2nc(C)cc2C)cc(OC)c1OC` had a z-score of 0.256.
For the compound `Cc1cc(C)n2cc(CSc3ncccc3C(=O)O)nc2n1`, the z-score came out at 0.09.
The compound `Cc1ccc(OCc2nc(-c3ccccn3)no2)cc1` showed a z-score of 0.0238.
Turning to `CC(C)Oc1ccc(C(=O)Nc2ccc(N3CCCC3)cc2)cc1`, the z-score was -0.126.
The compound `COc1ccc(C(C(=O)NC2CCCC2)N(C(=O)c2ccco2)c2ccc3c(c2)OCO3)cc1OC` (stereo not drawn) gave a z-score of 1.1.
`COc1cc(N2CCCC2)c(OC)cc1/C=C(/C#N)c1ccc(F)cc1` registered a z-score of 0.791.
In the case of `CCOC(=O)C1C(=O)C=C(Nc2ccccc2F)CC1c1ccccc1` (stereo not drawn), the z-score is -1.33.
Take `Cc1ccc(C(=O)Nc2c(C)n(C)n(-c3ccccc3)c2=O)cc1S(=O)(=O)N1CCOCC1`: the z-score came to 0.139.
Compound `COc1cc(C(=O)Nc2ccc(-c3nc4cc(C)ccc4o3)c(O)c2)cc(OC)c1OC` registered a z-score of -0.327.
`COc1ccc(CCNS(=O)(=O)c2ccc(C3CNC(=O)C3)cc2)cc1OC` (stereo not drawn) yielded a z-score of -0.256.
`COc1ccc(NC(=O)CCSc2nnc(C)s2)cc1`: the z-score was -0.465.
Next, `N#CC(c1ccccc1)c1ccc2c(C(F)(F)F)cc(C(F)(F)F)nc2n1` (stereo not drawn): 0.135; `COc1cc(OC)c(NC(=O)CCNC(=O)Cn2cnc3ccccc3c2=O)cc1Cl`: 2.94.
For `CCCc1nnc(NC(=O)CCC(=O)NCc2ccccc2OC)s1`, the z-score was found to be 0.108.
`O=C(NCc1ccccc1)C1CCCN(S(=O)(=O)c2cccs2)C1` (stereo not drawn): the z-score was -0.171.
On to `CCCNc1nc(C)c(C(C)=O)cc1C#N`, for which the z-score was -0.0837.
Compound `Cn1c(=O)c2c(nc(NCc3ccc4c(c3)OCO4)n2Cc2ccccc2Cl)n(C)c1=O` had a z-score of 0.17.
As to `Cc1csc2nc(CNS(=O)(=O)c3ccc4c(c3)CCCC4)cn12`, the z-score is -0.0983.
With `COc1ccccc1C(O)Cc1nc2ccccc2n1C` (stereo not drawn) the figure was -0.393; with `CN(C)C(CNC(=O)c1cccc(OC(F)F)c1)c1ccco1` (stereo not drawn), 0.0916.
Regarding `CCC(=O)N1CCc2cc(S(=O)(=O)N3CCN(C(=O)c4ccco4)CC3)ccc21`, the z-score was found to be 0.953.
Take `O=C(O)CONC(=O)c1cc(OCC(F)(F)F)ccc1OCC(F)(F)F`: the z-score was -0.0842.
`COC(=O)c1ccc(OC(C)C(=O)c2ccc(C)cc2)cc1` (stereo not drawn) gave a z-score of -0.231.
Compound `Cc1ccc(C)c(N2CCN(S(=O)(=O)c3c(C)noc3/C=C/N(C)C)CC2)c1` yielded a z-score of -0.559.
The compound `O=C(Nc1ccccc1)c1cc(S(=O)(=O)N2CCOCC2)cs1` showed a z-score of 0.0281.
Take `O=C(c1cc2c(s1)CCCC2)N1CCN(C(=O)C2CCCO2)CC1` (stereo not drawn): the z-score is 0.655.
Next, `COc1ccc(-c2oc3ncnc(N)c3c2-c2ccccc2)cc1`: -0.565.
In turn, `CC1(C)CN=C(NC2CCCCC2)S1` had a z-score of 0.817.
Compound `COc1ccc(-c2cc(-c3ccccc3)c(C#N)c(S(C)=O)n2)cc1` (stereo not drawn) returned a z-score of -2.24.
Next, `COC(=O)c1cn(NC(=O)/C=C/c2ccc(OC)c(OC)c2)c(=O)c2ccccc12`: 0.446.
Take `COc1ccc(-c2noc(Cc3ccccc3OC)n2)cc1`: the z-score is -0.376.
The compound `CCOC(=O)c1ccccc1NC1c2ccccc2C(=O)N1c1cc(C)ccn1` (stereo not drawn) came in with a z-score of -0.0859.
`COc1cccc(-c2csc(N3CCN(CC(=O)NNC(=O)c4ccc(Cl)cc4)CC3)n2)c1` had a z-score of 0.201.
The compound `O=C(Nc1cccc(F)c1)N1CC=C(n2c(=O)[nH]c3ccccc32)CC1` had a z-score of -0.978.
Consider `CCCC1CC(CSC(=N)N)OC1=O` (stereo not drawn), for which the z-score was -0.478.
`N#CCSc1nc(-c2ccccc2)cs1` gave a z-score of -0.0202.
In the case of `Cc1sc2nc3c(SC(C)C(=O)O)cc(C(=O)c4ccccc4O)cn3c(=O)c2c1C` (stereo not drawn), the z-score was -0.913.
Take `COc1ccc(OC)c(-c2nc(C)sc2CC(=O)O)c1`: the z-score is -0.649.
With `O=C(Oc1ccc2cccc(OC(=O)N3CCOCC3)c2c1)N1CCOCC1` the figure was 0.24; with `O=C(COC(=O)c1ccccc1NCc1ccco1)Nc1ccc2c(c1)OCO2`, 0.427; with `CCOC(=O)C1C(=O)OC(C)(C)C1C(C)C(=O)c1ccc(OC)cc1` (stereo not drawn), -0.13.
With `CCN1CCCC1CN(Cc1cc2c(C)cc(C)cc2[nH]c1=O)C(=O)NC1CCCCC1` (stereo not drawn) the figure was -0.0328; with `O=S(=O)(c1ccc(S(=O)(=O)N(Cc2ccco2)Cc2ccccc2Cl)cc1)N1CCCC1`, 0.644; with `O=C(N/N=C/c1ccccc1)NC1CCCCC1`, -0.571.
Take `CC(C)(C)n1nnnc1C(c1cccs1)N(Cc1cccnc1)Cc1ccco1` (stereo not drawn): the z-score was -0.322.
The compound `CCOC(=O)C(CCCOc1ccc(C(C)CC)cc1)C(=O)OCC` (stereo not drawn) came in with a z-score of -0.584.
Compound `COCCn1c(SCC(=O)N2CCCCC2)nc2ccccc2c1=O` registered a z-score of -0.143.
For `COc1ccccc1NC(=O)CN1CCN(Cc2ccccc2)CC1`, the z-score is -0.202.
Next, `Fc1ccccc1CSc1nnc(-c2ccccc2)o1`: -0.226; `COc1ccccc1C(=O)N1c2ccccc2Sc2ccccc21`: -2.64.
With `CCc1ccccc1Nc1nc(N)nc(CSCC(=O)c2cc(C)n(C)c2C)n1` the figure was -0.408.
`CCCn1c(-c2cccc([N+](=O)[O-])c2)nc2c1c(=O)[nH]c(=O)n2Cc1ccccc1`: the z-score was -0.444.
Turning to `O=C1NC(=S)/C(=C\c2ccc(-c3ccccc3Cl)o2)S1`, the z-score is active: 3.83.
With `CC(C)COc1ccc(C(=O)NC(=S)Nc2ccc(CN3CCOCC3)cc2)cc1`, the z-score is -0.0271.
For `Cc1cc(C)c2cc(CN(Cc3nnnn3Cc3ccc(F)cc3)C3CCCC3)c(=O)[nH]c2c1`, the z-score stood at 0.326.
`Cc1ccc(OCCSc2ncnc3nc[nH]c23)cc1` came in with a z-score of 0.0215.
As to `O=C1CN(C(=O)CSc2nnc(-c3ccccc3)n2Cc2ccc3c(c2)OCO3)c2ccccc2N1`, the z-score is -1.54.
With `Cc1sc(NC(=O)C2CCCCC2C(=O)O)c(C(N)=O)c1C` (stereo not drawn) the figure was 0.235; with `O=C(Nc1ccccc1N1CCOCC1)c1ccc([N+](=O)[O-])cc1`, -0.171.
On to `Cc1ccc(OCC(=O)Nn2c(C)nc3ccccc3c2=O)c(C(C)C)c1`, for which the z-score is -0.06.
As to `COc1cccc(-c2nnc(NC(=O)C(C)C)o2)c1`, the z-score came out at 0.295.
The compound `CCc1cccc(CC)c1NC(=O)NC1CCCCC1` registered a z-score of -0.115.
In turn, `Cc1ccc(C(=O)C(C)OC(=O)c2cc3cc([N+](=O)[O-])ccc3oc2=O)cc1` (stereo not drawn) yielded a z-score of -0.476.
In turn, `CCN(CC)S(=O)(=O)c1ccc(N2CCN(S(=O)(=O)c3ccc4c(c3)OCCO4)CC2)nc1` showed a z-score of 0.0737.
Turning to `Cc1ccc(C(=O)C2COC(=O)C2)cc1` (stereo not drawn), the z-score was 0.417.
`CC1(C)Cc2c(C#N)c(N)sc(=S)c2CS1` displayed a z-score of -0.529.
`Cc1ccccc1-c1ccc(=O)n(CC(=O)Nc2ccc(C(=O)N3CCCC3)cc2)n1` had a z-score of 0.0513.
With `Cc1cc(NC(=O)CS(=O)(=O)c2cn(Cc3cccc(F)c3)c3ccccc23)no1` the figure was -1.12; with `COc1ccc(-c2cc3ccc(OCc4nn[nH]n4)cc3oc2=O)cc1`, 0.104; with `O=C(NCCN1CCOCC1)c1cc(=O)[nH]c2ccc(Br)cc12`, -0.169.
Next, `COc1ccc(OC)c(C(c2nnnn2Cc2ccccc2)N2CCN(C)CC2)c1` (stereo not drawn): -0.291; `COc1ccc(C(C)(C)C)cc1NC(=O)CNc1cccc2ccccc12`: 0.195; `c1ccc(-c2nn3c(Cn4nnc5ccccc54)nnc3s2)cc1`: -0.467.
Compound `COC(=O)c1scc(C)c1NC(=O)Nc1ccccc1` displayed a z-score of 0.035.
Regarding `CC(=O)Nc1sc(NC(=O)c2ccc(Cl)cc2)nc1-c1cccs1`, the z-score is -0.664.
`CCOC(=O)CSc1ccc2nnc(-c3cccs3)n2n1` registered a z-score of 0.353.
Compound `COc1ccc(CNC(=O)COc2ccc(S(=O)(=O)NC(C)C)cc2)cc1` came in with a z-score of 0.46.
With `Cc1nc2ncccn2c1-c1csc(NCc2ccco2)n1`, the z-score is -0.504.
`O=C(COc1ccccc1F)Nc1ccc(S(=O)(=O)NCc2ccco2)cc1`: the z-score was 0.0184.
In turn, `CCN(CC)S(=O)(=O)c1ccc(OC(C)C)c(NC(=O)c2c3c(nc4ccccc24)CCN(Cc2ccccc2)C3)c1` returned a z-score of 0.12.
As for `O=C(N/N=C/c1ccco1)/C(=C/c1cccc([N+](=O)[O-])c1)NC(=O)c1ccccc1`, the z-score is -0.408.
On to `Cc1ccc(NC(=O)CSc2nnc(-c3cnccn3)n2Cc2ccco2)cc1C`, for which the z-score is -0.0937.
`Cc1cc(NC(=O)CSc2nc3ccccc3n2CC(=O)N2CCCCC2)no1` yielded a z-score of 0.0584.
Next, `O=C1CC(c2cc([N+](=O)[O-])ccc2Cl)c2c(ccc3ccccc23)N1` (stereo not drawn): 0.243; `Cc1[nH]c2ccccc2c1C(=O)CN1C(=O)NC(C)(c2ccc(Cl)cc2Cl)C1=O` (stereo not drawn): -0.0102.
Next, `O=C(COc1ccc(Br)cc1)Nc1ccc(-c2nnc(-c3ccco3)o2)cc1`: -0.101; `CC(C)(C)C(=O)NCC12C=CC(O1)C1C(=O)N(c3ccccc3)C(=O)C12` (stereo not drawn): 0.315; `CCOC(=O)CCn1c(=O)c2c(nc(Br)n2Cc2ccccc2)n(C)c1=O`: 0.203.
Take `O=C(CSc1nnc(-c2ccco2)n1Cc1ccco1)Nc1ccccc1`: the z-score was -0.235.
For `C=CCc1c(OC(C)=O)c2ccccc2n(C)c1=O`, the z-score is -0.353.
`CCOC(=O)Nc1sc2nc(C)cc(C)c2c1-n1cccc1` displayed a z-score of 0.355.
The compound `C=CCNC(=O)CN(c1ccccc1OCC)S(=O)(=O)c1ccc(C)cc1` had a z-score of 0.0192.
`O=C(CNC(=O)c1cccs1)c1ccc(F)cc1` yielded a z-score of 0.125.
In the case of `Cc1ccccc1CSc1nccn1-c1ccccc1`, the z-score is -1.59.
The compound `COc1ccc(NC(=O)Cn2cc(S(=O)(=O)Cc3ccccc3)c3ccccc32)c(OC)c1` gave a z-score of -0.139.
Compound `CCCOc1ccc(CSc2ncn[nH]2)cc1` gave a z-score of 0.502.
Turning to `Cc1ccnc(NC(=O)CSc2cc(=O)n(C)c3ccccc23)c1`, the z-score worked out at 0.327.
For the compound `Cc1c(CCOC(=O)C2C3CC4CC(C3)CC2C4)sc[n+]1CC(=O)c1ccc(Br)cc1` (stereo not drawn), the z-score is 2.48.
For `CCOc1ccc(NC(=O)CSc2nc(C)c3c(c2C#N)CCCC3)cc1`, the z-score was determined as 0.0475.
With `Cc1ccc(CNc2oc(C)nc2C#N)cc1` the figure was -0.0991; with `CCOC(=O)Cc1csc(NC(=O)CSc2nnc(C(C)C)n2CC)n1`, 0.0208.
Consider `CN1CCC(=NNc2ccc(S(=O)(=O)N3CCOCC3)cc2[N+](=O)[O-])CC1`, for which the z-score is -0.269.
Next, `Cc1ccsc1C1C2=C(CCCC2=O)Nc2ncnn21` (stereo not drawn): -0.47; `Cc1ccc(-n2c(N)c(-c3nc4ccccc4n3C)sc2=S)cc1`: 0.836; `N=C1/C(=C/c2cccs2)C(=O)N=C2SN=C(SCc3ccccc3)N12`: active: 9.53.
Next, `COc1cc(NC(=O)Cn2c(-c3cncs3)nc3ccccc32)cc(OC)c1OC`: 0.295; `Cc1ccccc1NC(=S)C1=C(O)c2sccc2N(C)S1(=O)=O`: -0.144.
With `Cc1nn2c(N3CCN(c4ccccn4)CC3)cc(C(C)C)nc2c1-c1ccccc1`, the z-score is -0.604.
